{
  "source": "PubChem BioAssay AID1347165",
  "about": "(National Center for Advancing Translational Sciences (NCATS), 2019)",
  "note": "Hit rate of the full screen: of about 220,000 compounds, about 5,700 (2.6%) were called active. Inconclusive means that the source gave no clear call. Such entries were picked first, then a sample of the others. Calls follow the shape of the dose curve; as a rule, active = well fitted inhibition curve with a large enough effect; inconclusive = small, poorly fitted or top-dose-only effect; inactive = no such curve, though single readings can be large or run the other way. A potency beside an inconclusive call is a rough fit, not a confirmed value. Potency is read from the fitted curve at half-maximal effect; tags tell the direction and shape of the fitted curve.",
  "data": [
    {"molecular_target": "Lysine-specific demethylase 5B (Homo sapiens) (UniProt Q9UGL1)", "sequence (Q9UGL1 whole entry, looked up, the tested form may be a part)": "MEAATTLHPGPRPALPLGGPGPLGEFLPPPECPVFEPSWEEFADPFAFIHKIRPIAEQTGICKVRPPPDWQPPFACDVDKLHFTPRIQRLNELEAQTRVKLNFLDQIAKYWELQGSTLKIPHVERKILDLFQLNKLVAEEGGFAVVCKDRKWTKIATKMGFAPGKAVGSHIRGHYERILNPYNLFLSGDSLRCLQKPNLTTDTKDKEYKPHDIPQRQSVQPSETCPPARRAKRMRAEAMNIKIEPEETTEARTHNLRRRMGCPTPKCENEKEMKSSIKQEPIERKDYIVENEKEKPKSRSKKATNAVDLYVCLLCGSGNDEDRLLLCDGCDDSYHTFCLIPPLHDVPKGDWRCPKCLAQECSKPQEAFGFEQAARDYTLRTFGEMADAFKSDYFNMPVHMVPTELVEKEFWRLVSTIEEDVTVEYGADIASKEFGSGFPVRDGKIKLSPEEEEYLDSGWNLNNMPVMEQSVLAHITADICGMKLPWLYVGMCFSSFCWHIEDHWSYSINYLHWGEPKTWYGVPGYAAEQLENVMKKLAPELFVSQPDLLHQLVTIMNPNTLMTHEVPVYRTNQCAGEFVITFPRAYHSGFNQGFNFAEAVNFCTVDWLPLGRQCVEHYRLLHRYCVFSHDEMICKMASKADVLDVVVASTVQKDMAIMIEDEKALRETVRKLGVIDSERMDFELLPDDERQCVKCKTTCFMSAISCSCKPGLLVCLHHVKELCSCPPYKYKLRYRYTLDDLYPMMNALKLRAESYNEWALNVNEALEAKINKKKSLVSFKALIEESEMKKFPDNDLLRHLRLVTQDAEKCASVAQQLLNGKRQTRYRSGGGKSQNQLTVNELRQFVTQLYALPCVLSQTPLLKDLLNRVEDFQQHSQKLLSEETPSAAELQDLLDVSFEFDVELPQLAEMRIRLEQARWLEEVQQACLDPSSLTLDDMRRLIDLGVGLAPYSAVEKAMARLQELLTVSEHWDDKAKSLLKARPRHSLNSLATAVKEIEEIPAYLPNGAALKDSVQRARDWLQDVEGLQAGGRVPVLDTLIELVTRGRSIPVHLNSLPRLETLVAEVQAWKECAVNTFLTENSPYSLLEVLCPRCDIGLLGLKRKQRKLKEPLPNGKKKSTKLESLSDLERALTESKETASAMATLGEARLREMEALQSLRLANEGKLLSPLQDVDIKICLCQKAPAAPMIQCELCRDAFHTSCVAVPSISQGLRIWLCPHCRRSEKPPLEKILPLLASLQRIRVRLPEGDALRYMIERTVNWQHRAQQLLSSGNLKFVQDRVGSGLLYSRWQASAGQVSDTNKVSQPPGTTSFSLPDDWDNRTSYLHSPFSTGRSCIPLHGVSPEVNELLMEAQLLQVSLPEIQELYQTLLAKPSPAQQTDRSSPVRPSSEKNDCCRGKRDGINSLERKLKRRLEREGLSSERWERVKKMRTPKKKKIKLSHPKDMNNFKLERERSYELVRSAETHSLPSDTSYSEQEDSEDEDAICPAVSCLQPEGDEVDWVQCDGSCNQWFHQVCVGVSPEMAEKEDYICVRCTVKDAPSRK", "test": "Primary screen for KDM5B Histone Demethylases FDH-coupled qHTS; also: nearly all actives have a fitted effect of over 70% in size", "settings": "FDH-coupled NADH fluorescence (FDH is formaldehyde dehydrogenase); series mostly up to 57.7 µM", "in_short": "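Inhibition is measured as reduced NADH fluorescence generation from FDH coupling to formaldehyde release. Truncated KDM5BΔAP at 200 nM final acts on H3K4me3 peptide (12.5 µM in substrate mix) in pH 7.5 HEPES buffer with Tween-20, 30 min, room temperature.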", "values": [
      {"smiles": "CCc1ccccc1-n1c(N)c(C(=O)OC)c2nc3ccccc3nc21", "Potency": "inconclusive: 31.6 µM [inhibitor, partial curve, poor fit]"},
      {"smiles": "OCCNc1nc2ccccc2nc1NCCO", "Potency": "inconclusive: 28.2 µM [inhibitor, partial curve, poor fit]"},
      {"smiles": "CC(=O)c1cccc(NC(=O)C(C)Sc2cc(Cl)ccc2Cl)c1", "note": "(stereo not drawn)", "Potency": "inactive"},
      {"smiles": "Cn1ccc(NC(=O)[C@@H]2C[C@@H](c3ccc(F)cc3)N(CCOc3ccccc3)C2)n1", "Potency": "inactive"},
      {"smiles": "CC(C)(C)c1coc([C@@H]2COCCN2Cc2ccc(C(=O)O)cc2)n1", "Potency": "inactive"},
      {"smiles": "Fc1ccc(OC2CN(CC3CCCCC3)C2)cc1F", "Potency": "inconclusive: 35.5 µM [inhibitor, partial curve, poor fit]"},
      {"smiles": "CC(C)(C)OC(=O)N1CCC(c2c(C(=O)N3CCN(C(=O)c4ccco4)CC3)cnn2-c2ccc(F)cc2F)CC1", "Potency": "inconclusive: 12.6 µM [inhibitor, partial curve, poor fit]"},
      {"smiles": "CC(=O)/C(=C1\\NC(C)(C)Cc2cc(C)c(C)cc21)c1ccccc1", "Potency": "inactive"},
      {"smiles": "O=C(NCCCN1CCCC1=O)c1cc(=O)[nH]c2ccccc12", "Potency": "inconclusive: 39.8 µM [inhibitor, single point]"},
      {"smiles": "CCOc1ccc(-n2nc3ccc(NC(=O)Cc4ccccc4)cc3n2)cc1", "Potency": "inconclusive: 25.1 µM [inhibitor, partial curve, poor fit]"},
      {"smiles": "CCCCSc1ncc(CN2CC[C@@]3(O)CCN(C(C)=O)C[C@H]3C2)cn1", "Potency": "inconclusive: 31.6 µM [inhibitor, partial curve, poor fit]"},
      {"smiles": "CCCCOc1cccc(C(=O)Nc2ccc3oc(-c4ccncc4)nc3c2)c1", "Potency": "inconclusive: 1.78 µM [inhibitor, partial curve, poor fit]"},
      {"smiles": "COc1ccc(-c2nc3c(c(=O)[nH]2)CCN(C(=O)c2ccc(OC)cc2OC)C3)cc1", "Potency": "inconclusive: 39.8 µM [inhibitor, single point]"},
      {"smiles": "CC1CCc2c(sc(NC(=O)CCCOc3ccccc3)c2C(N)=O)C1", "note": "(stereo not drawn)", "Potency": "inconclusive: 35.5 µM [inhibitor, partial curve, poor fit]"},
      {"smiles": "CCn1ccc(C(=O)N2CCc3nc(NC)nc(C(=O)N4CCCC4)c3C2)n1", "Potency": "active: 17.8 µM"},
      {"smiles": "Clc1ccc(Cl)c(-c2nn3c(CN4CCCCC4)nnc3s2)c1", "Potency": "inactive"},
      {"smiles": "O=S(=O)(c1ccc(F)cc1)N1CCN(c2ccc(NCc3ccccc3)nn2)CC1", "Potency": "inconclusive: 11.2 µM [inhibitor, partial curve, poor fit]"},
      {"smiles": "CCOC(=O)N1CCc2c(sc(N)c2C#N)C1", "Potency": "inconclusive: 31.6 µM [inhibitor, partial curve, poor fit]"}
    ]}
  ]
}
